Measurements from the supplement of paper PMC3334620.
Whole data set: some 33,000 sequences, median “E-score (-0.5 to 0.5)” near -0.054, cut for the highest 2% near 0.35. The list shows a part of the results.

target: T1, Stb5 (UniProt P38699); assay: PBM E-score (8-mer binding enrichment) (E-score (-0.5 to 0.5)); higher = stronger / more preferred TF binding; most listed sequences are background and not binding sites; details: protein concentration: 200 nM; construct: GST-full length
T1 sequence: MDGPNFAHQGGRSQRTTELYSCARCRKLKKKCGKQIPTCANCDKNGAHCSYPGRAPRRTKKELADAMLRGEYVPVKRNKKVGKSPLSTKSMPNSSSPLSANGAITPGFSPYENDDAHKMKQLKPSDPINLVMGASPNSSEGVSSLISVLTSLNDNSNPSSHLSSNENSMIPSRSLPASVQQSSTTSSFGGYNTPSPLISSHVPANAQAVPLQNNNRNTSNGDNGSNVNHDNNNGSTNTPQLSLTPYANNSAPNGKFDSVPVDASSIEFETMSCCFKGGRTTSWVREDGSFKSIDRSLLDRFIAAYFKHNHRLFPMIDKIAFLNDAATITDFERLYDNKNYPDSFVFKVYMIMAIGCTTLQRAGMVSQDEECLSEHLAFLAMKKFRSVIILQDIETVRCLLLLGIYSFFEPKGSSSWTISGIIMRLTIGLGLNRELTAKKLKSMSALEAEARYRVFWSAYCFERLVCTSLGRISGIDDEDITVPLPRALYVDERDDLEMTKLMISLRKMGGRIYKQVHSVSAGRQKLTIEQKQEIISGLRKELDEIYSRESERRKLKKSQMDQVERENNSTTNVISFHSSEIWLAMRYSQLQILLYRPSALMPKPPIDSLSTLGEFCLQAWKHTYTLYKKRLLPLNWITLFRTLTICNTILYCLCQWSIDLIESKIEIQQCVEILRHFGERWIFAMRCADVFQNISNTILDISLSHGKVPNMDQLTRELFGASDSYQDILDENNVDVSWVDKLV
Procedure, shortened: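 Yeast transcription factors carrying a GST tag, as full-length proteins or DNA-binding domains, were produced by PURExpress in vitro transcription/translation. About 100-200 nM protein was applied to universal all-10-mer Agilent arrays, double-stranded by primer extension on fresh or once-stripped slides. Bound protein was detected with fluorescent anti-GST, and scans were normalised with masliner. The Universal PBM Analysis Suite gave each ungapped eight-base word, pooled with its reverse complement, an E-score, a modified Wilcoxon-Mann-Whitney statistic.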

Sequence | PBM E-score
CATATAAA | 0.0235
TCTGAAAA | -0.118
ATGCAAAA | -0.0662
GAGCCACC | 0.0335
CCTCGAAC | -0.29
CTCTCGGA | 0.0492
CATTATGC | 0.0831
AGTGAAAC | -0.22
GGGACACA | -0.00402
CCCATATA | 0.0651
CCCATCCG | 0.129
CATATGAC | 0.0378
ATATTCTC | -0.0456
GAGTTACA | -0.0771
ATTTCTTG | -0.0868
AAGTCCAT | 0.0307
GACGCAAC | 0.132
ATCCATCC | 0.109
ACAAGGTC | -0.179
CATCATGC | -0.0753
AAGCGGAA | 0.167
GTAAGCCA | -0.243
ACTGACGA | -0.181
AGATACTC | 0.0381
AGTCTCCG | 0.264

Sequence | PBM E-score
GAAAAATA | -0.088
AAGGACAT | 0.0967
GCTGCCAC | 0.0409
GAGTACTC | -0.176
GCAGTGTA | -0.117
TGGTGGAA | -0.255
AACACTCA | -0.109
AGGAGCCA | -0.379
ACAGGCCG | 0.212
ATCCTTTG | -0.0992
CCGCCGCG | 0.363
ACCTTTTA | -0.103
GTATGCAC | -0.0253
CACTTTTC | -0.0609
GATCGGCC | 0.298
CCTGGATA | -0.121
ATGCCCGG | 0.318
AAAATCCT | 0.0168
ACCAGCTC | -0.0609
CGTCAACG | 0.108
ACATCGCG | -0.00388
TAAGTTAA | -0.0413
TCGGTAAA | 0.2
CCTGCCGC | 0.112
GATTGTGC | -0.0187

Sequence | PBM E-score
CTAATTTA | -0.0327
CCTAGACG | -0.0639
CACTGCAG | -0.231
AGATTCGC | -0.00054
ATACCACG | -0.174
ATGGCGTG | -0.256
CGTGTACA | -0.00441
CACTTTAA | -0.0573
GTAAAAGA | -0.226
ACCAAAGT | -0.209
TTCCTCAA | -0.217
ACAGCTGG | -0.121
CGAAGCAG | -0.0001
AACCAGTG | -0.182
GAAAGCGC | 0.0901
GAACCTTC | -0.201
CCCTCTTA | -0.167
CAACGTAC | -0.237
AAGGCTTG | -0.305
CCAGCGGA | 0.282
ACTAAATA | 0.0203
CGATAGCG | 0.214
ACGCATGC | -0.15
CAAGCATA | -0.205
AGGGGTAT | -0.0217

Sequence | PBM E-score
CTATAATA | 0.178
GTCGCGGA | 0.227
AACATAGC | 0.0221
GCATAGGC | -0.108
CACATCCA | -0.132
ACGCCGTA | 0.204
CCAAATAC | -0.0142
ACAACACT | -0.233
CTCGGAAA | -0.101
CTTGCAGA | -0.112
GGATGTTA | 0.229
GCCCCCCC | -0.161
AATTAGCT | -0.0705
AGCGCGAA | -0.0315
CTGCGGAA | 0.0552
GATATTCA | -0.0862
AGGGTTCG | -0.163
TCCTTGAA | -0.238
ACGGATAT | 0.367
CCAGGTCC | 0.0542
TATTGACA | -0.0413
ACAGCCCT | -0.157
GTTATCTA | -0.00767
CGACATCG | 0.227
CTCTCACC | 0.0107

Sequence | PBM E-score
AACACCGT | 0.472
GACCAGCA | -0.115
CCCGCCGA | 0.345
ACATTAAG | -0.0786
ACCGGTTA | 0.276
GGAGGCTA | 0.0536
CCCAAGGC | 0.0152
GTTGGGTA | -0.192
ATAATCGC | 0.136
CCAAAAAG | -0.00807
GTGTTATA | 0.203
ACCACGGG | 0.0924
AATTTTAC | 0.037
CCTTAAAG | -0.122
CCGTGGCG | 0.311
CATGGCGG | 0.262
ATACAGAA | -0.0271
CATTTAGG | -0.0674
AGCTGGTG | -0.223
GCTTCGGA | 0.0899
CGCGGCTC | 0.0954
CCGTTCGA | 0.163
CTGCAGAA | -0.0848
GATTATGA | 0.0629
CAAGTTCA | -0.0622

Sequence | PBM E-score
CAGATGCA | -0.352
AACCACGA | -0.0647
CATAACCC | 0.13
AGAAACAA | -0.0376
CTTGCAAA | 0.00157
GAATTGTA | -0.0944
ATCTTCTA | -0.0591
AAGGGTCA | -0.283
ACGGAAGC | 0.0867
CACCCTGC | -0.0155
GCATTCCC | 0.0283
TACCTCAA | -0.169
CGCCAGCG | 0.115
AAGGTTTA | -0.182
TTGTGAAA | -0.223
ACATGATC | -0.0463
GAATTGCC | 0.143
ATATTCCC | 0.372
GCAAAGGA | -0.107
ACATACCC | -0.0726
ATCAACTA | -0.159
CAAGAGGA | -0.316
AAAGCAGA | -0.316
GACCAACC | 0.0267
ATGTCCGA | 0.412

Sequence | PBM E-score
AGTGGACC | -0.206
AATGGGGC | -0.213
CTGTAACC | 0.0375
CAGGGATG | -0.11
CGATTTAA | 0.0153
CATTAAAC | -0.17
GCTCTCCC | -0.155
AAAATATT | 0.114
CCGGGAAA | 0.194
AAAGCATG | -0.169
ATTATGCA | -0.0339
GGGAGGGA | -0.0136
GATTTGGA | -0.00562
CATAAATC | 0.0872
GAGTAACA | 0.0832
CGGAGAGA | 0.241
CAGGATGG | -0.143
TAGCGATA | 0.0393
AGGCGAAA | -0.239
AACCATGA | 0.00068
CAGGTTAC | 0.0846
ATCCAACG | -0.168
